# This is one part of the list.
# B1: XL-35 (Xenopus laevis) (protein)
# chain: MLVHILLLLVTGGLSQSCDPVVIVASKNMVKQLDCDKFRNCKEIKDSNEEAQDGIYTLTSPDGISYQTFCDMTTNGGGWTLVASVHENNMAGKCTIGDRWSSQQGNRADYPEGDGNWANYNTFGSAGGATSDDYKNPGYYDIEAYNLGVWHVPNKTPLSVWRNSSLQRYRTTDGILFKHGGNLFSLYRIYPVKYGIGSCSKDSGPTVPVVYDLGSANLTASFYSPGFRSQFTPGYIQFRPINTEKAALALCPGMKMESCNVEHVCIGGGGYFPEADPRQCGDFAAYDFNGYGTKKFNSAGIEITEAAVLLFYL
# What was measured:
# Experiment in all cases: glycan array binding signal (z-score within array); higher = stronger binding
# Settings in all cases: glycan notation: IUPAC condensed, linker removed
# [1] = target: Fuc(a1-2)[Gal(a1-3)]Gal(b1-3)GlcNAc(b1-3)GalNAc
# In short: (§1)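 Glycan array data came from 3228 arrays in the Consortium for Functional Glycomics database, and only arrays with an available protein sequence were kept. Glycan names were put into IUPAC-condensed notation, and columns mapping to the same glycan were averaged. The binding signal is a within-array Z-score, averaged across arrays of one protein sequence run at different concentrations or buffers and across linkers. A negative Z-score can be read as non-binding.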
# [2] = target: Fuc(a1-2)[Gal(a1-3)]Gal(b1-3)GlcNAc(b1-6)GalNAc
# In short: as §1
# [3] = target: Fuc(a1-2)[Gal(a1-3)]Gal(b1-4)Glc
# In short: as §1
# [4] = target: Fuc(a1-2)[Gal(a1-3)]Gal(b1-4)GlcNAc
# In short: as §1
# [5] = target: Fuc(a1-2)[Gal(a1-3)]Gal(b1-4)GlcNAc(b1-2)Man
# In short: as §1
# [6] = target: Fuc(a1-2)[Gal(a1-3)]Gal(b1-4)GlcNAc(b1-2)Man(a1-3)[Fuc(a1-2)[Gal(a1-3)]Gal(b1-4)GlcNAc(b1-2)Man(a1-6)]Man(b1-4)GlcNAc(b1-4)GlcNAc
# In short: as §1
# [7] = target: Fuc(a1-2)[Gal(a1-3)]Gal(b1-4)GlcNAc(b1-2)Man(a1-3)[Fuc(a1-2)[Gal(a1-3)]Gal(b1-4)GlcNAc(b1-2)Man(a1-6)]Man(b1-4)GlcNAc(b1-4)[Fuc(a1-6)]GlcNAc
# In short: as §1
# [8] = target: Fuc(a1-2)[Gal(a1-3)]Gal(b1-4)GlcNAc(b1-3)GalNAc
# In short: as §1
# [9] = target: Fuc(a1-2)[Gal(a1-3)]Gal(b1-4)GlcNAc(b1-3)[Fuc(a1-2)[Gal(a1-3)]Gal(b1-4)GlcNAc(b1-6)]GalNAc
# In short: as §1
# [10] = target: Fuc(a1-2)[Gal(a1-3)]Gal(b1-4)GlcNAc(b1-6)GalNAc
# In short: as §1
# [11] = target: Fuc(a1-2)[Gal(a1-3)]Gal(b1-4)[Fuc(a1-3)]Glc
# In short: as §1
# [12] = target: Fuc(a1-2)[Gal(a1-3)]Gal(b1-4)[Fuc(a1-3)]GlcNAc
# In short: as §1
# [13] = target: Fuc(a1-2)[Gal(a1-3)]Gal(b1-4)[Fuc(a1-3)]GlcNAc(b1-3)GalNAc
# In short: as §1
# [14] = target: Fuc(a1-2)[Gal(a1-4)]Gal(b1-4)GalNAc
# In short: as §1
# [15] = target: Fuc(a1-2)[Gal(a1-4)]Gal(b1-4)GlcNAc
# In short: as §1
# [16] = target: Fuc(a1-2)[GalNAc(a1-3)]Gal
# In short: as §1
# [17] = target: Fuc(a1-2)[GalNAc(a1-3)]Gal(b1-3)GalNAc(a1-3)[Fuc(a1-2)]Gal(b1-4)GlcNAc
# In short: as §1
# [18] = target: Fuc(a1-2)[GalNAc(a1-3)]Gal(b1-3)GalNAc(b1-3)Gal(a1-4)Gal(b1-4)Glc
# In short: as §1
# [19] = target: Fuc(a1-2)[GalNAc(a1-3)]Gal(b1-3)GlcNAc
# In short: as §1
# [20] = target: Fuc(a1-2)[GalNAc(a1-3)]Gal(b1-3)GlcNAc(b1-2)Man(a1-3)[Fuc(a1-2)[GalNAc(a1-3)]Gal(b1-3)GlcNAc(b1-2)Man(a1-6)]Man(b1-4)GlcNAc(b1-4)GlcNAc
# In short: as §1
# [21] = target: Fuc(a1-2)[GalNAc(a1-3)]Gal(b1-3)GlcNAc(b1-2)Man(a1-3)[Fuc(a1-2)[GalNAc(a1-3)]Gal(b1-3)GlcNAc(b1-2)Man(a1-6)]Man(b1-4)GlcNAc(b1-4)[Fuc(a1-6)]GlcNAc
# In short: as §1
# [22] = target: Fuc(a1-2)[GalNAc(a1-3)]Gal(b1-3)GlcNAc(b1-3)GalNAc
# In short: as §1
# [23] = target: Fuc(a1-2)[GalNAc(a1-3)]Gal(b1-3)GlcNAc(b1-6)GalNAc
# In short: as §1
# [24] = target: Fuc(a1-2)[GalNAc(a1-3)]Gal(b1-4)Glc
# In short: as §1
# [25] = target: Fuc(a1-2)[GalNAc(a1-3)]Gal(b1-4)GlcNAc
# In short: as §1
# [26] = target: Fuc(a1-2)[GalNAc(a1-3)]Gal(b1-4)GlcNAc(b1-2)Man
# In short: as §1
# [27] = target: Fuc(a1-2)[GalNAc(a1-3)]Gal(b1-4)GlcNAc(b1-2)Man(a1-3)[Fuc(a1-2)[GalNAc(a1-3)]Gal(b1-4)GlcNAc(b1-2)Man(a1-6)]Man(b1-4)GlcNAc(b1-4)GlcNAc
# In short: as §1
# [28] = target: Fuc(a1-2)[GalNAc(a1-3)]Gal(b1-4)GlcNAc(b1-2)Man(a1-3)[Fuc(a1-2)[GalNAc(a1-3)]Gal(b1-4)GlcNAc(b1-2)Man(a1-6)]Man(b1-4)GlcNAc(b1-4)[Fuc(a1-6)]GlcNAc
# In short: as §1
# [29] = target: Fuc(a1-2)[GalNAc(a1-3)]Gal(b1-4)GlcNAc(b1-3)Gal(b1-4)GlcNAc
# In short: as §1
# [30] = target: Fuc(a1-2)[GalNAc(a1-3)]Gal(b1-4)GlcNAc(b1-3)Gal(b1-4)GlcNAc(b1-3)Gal(b1-4)GlcNAc
# In short: as §1
# [31] = target: Fuc(a1-2)[GalNAc(a1-3)]Gal(b1-4)GlcNAc(b1-3)GalNAc
# In short: as §1
# [32] = target: Fuc(a1-2)[GalNAc(a1-3)]Gal(b1-4)GlcNAc(b1-3)[Fuc(a1-2)[GalNAc(a1-3)]Gal(b1-4)GlcNAc(b1-6)]GalNAc
# In short: as §1
# [33] = target: Fuc(a1-2)[GalNAc(a1-3)]Gal(b1-4)GlcNAc(b1-6)GalNAc
# In short: as §1
# [34] = target: Fuc(a1-2)[GalNAc(a1-3)]Gal(b1-4)[Fuc(a1-3)]GlcNAc
# In short: as §1
# [35] = target: Fuc(a1-2)[GalNAc(a1-3)]Gal(b1-4)[Fuc(a1-3)]GlcNAc(b1-3)GalNAc
# In short: as §1
# [36] = target: Fuc(a1-2)[GalNAc(a1-4)]Gal(b1-4)GlcNAc
# In short: as §1
# [37] = target: Fuc(a1-2)[GalNAc(b1-3)]Gal
# In short: as §1
# Fuc(a1-3)GlcNAc = target: Fuc(a1-3)GlcNAc
# In short: as §1
# [38] = target: Fuc(a1-3)[Gal(b1-4)]Glc6S
# In short: as §1
# [39] = target: Fuc(a1-3)[Gal(b1-4)]GlcNAc
# In short: as §1
# [40] = target: Fuc(a1-3)[Gal(b1-4)]GlcNAc(b1-2)Man
# In short: as §1
# [41] = target: Fuc(a1-3)[Gal(b1-4)]GlcNAc(b1-2)Man(a1-3)[Fuc(a1-3)[Gal(b1-4)]GlcNAc(b1-2)Man(a1-6)]Man(b1-4)GlcNAc(b1-4)GlcNAc
# In short: as §1
# [42] = target: Fuc(a1-3)[Gal(b1-4)]GlcNAc(b1-2)Man(a1-3)[Fuc(a1-3)[Gal(b1-4)]GlcNAc(b1-2)Man(a1-6)]Man(b1-4)GlcNAc(b1-4)[Fuc(a1-6)]GlcNAc
# In short: as §1
# [43] = target: Fuc(a1-3)[Gal(b1-4)]GlcNAc(b1-3)Gal(b1-3)[Fuc(a1-4)]GlcNAc
# In short: as §1
# [44] = target: Fuc(a1-3)[Gal(b1-4)]GlcNAc(b1-3)Gal(b1-4)[Fuc(a1-3)]GlcNAc
# In short: as §1
# [45] = target: Fuc(a1-3)[Gal(b1-4)]GlcNAc(b1-3)Gal(b1-4)[Fuc(a1-3)]GlcNAc(b1-3)Gal(b1-4)[Fuc(a1-3)]GlcNAc
# In short: as §1
# [46] = target: Fuc(a1-3)[Gal(b1-4)]GlcNAc(b1-3)GalNAc
# In short: as §1
# [47] = target: Fuc(a1-3)[Gal(b1-4)]GlcNAc(b1-4)Gal(b1-4)[Fuc(a1-3)]GlcNAc
# In short: as §1
# [48] = target: Fuc(a1-3)[Gal(b1-4)]GlcNAc(b1-4)Gal(b1-4)[Fuc(a1-3)]GlcNAc(b1-4)Gal(b1-4)[Fuc(a1-3)]GlcNAc
# In short: as §1
# [49] = target: Fuc(a1-3)[Gal(b1-4)]GlcNAc(b1-6)GalNAc
# In short: as §1
# [50] = target: Fuc(a1-3)[Gal(b1-4)]GlcNAc(b1-6)[Gal(b1-3)GlcNAc(b1-3)]Gal(b1-4)Glc
# In short: as §1
# [51] = target: Fuc(a1-3)[Gal(b1-4)]GlcNAc6S
# In short: as §1
# [52] = target: Fuc(a1-3)[Gal3S(b1-4)]Glc
# In short: as §1
# [53] = target: Fuc(a1-3)[Gal3S(b1-4)]Glc6S
# In short: as §1
# [54] = target: Fuc(a1-3)[Gal3S(b1-4)]GlcNAc
# In short: as §1
# [55] = target: Fuc(a1-3)[Gal3S(b1-4)]GlcNAc6S
# In short: as §1
# [56] = target: Fuc(a1-3)[GalNAc(b1-4)]Gal(b1-4)GlcNAc
# In short: as §1
# [57] = target: Fuc(a1-3)[GalNAc(b1-4)]GlcNAc
# In short: as §1
# [58] = target: Fuc(a1-3)[GalNAc(b1-4)]GlcNAc6S
# In short: as §1
# Fuc(a1-4)GlcNAc = target: Fuc(a1-4)GlcNAc
# In short: as §1
binder,measurement,setting,value
B1,glycan array binding signal (z-score),[1],-0.477
same,glycan array binding signal (z-score),[2],-0.025
same,glycan array binding signal (z-score),[3],0.185
same,glycan array binding signal (z-score),[4],-0.007
same,glycan array binding signal (z-score),[5],-0.314
same,glycan array binding signal (z-score),[6],0.337
same,glycan array binding signal (z-score),[7],-0.409
same,glycan array binding signal (z-score),[8],-0.589
same,glycan array binding signal (z-score),[9],0.298
same,glycan array binding signal (z-score),[10],-0.256
same,glycan array binding signal (z-score),[11],-0.158
same,glycan array binding signal (z-score),[12],-0.202
same,glycan array binding signal (z-score),[13],0.089
same,glycan array binding signal (z-score),[14],-0.077
same,glycan array binding signal (z-score),[15],0.604
same,glycan array binding signal (z-score),[16],-0.015
same,glycan array binding signal (z-score),[17],0.405
same,glycan array binding signal (z-score),[18],-0.156
same,glycan array binding signal (z-score),[19],-0.315
same,glycan array binding signal (z-score),[20],-0.212
same,glycan array binding signal (z-score),[21],-0.189
same,glycan array binding signal (z-score),[22],0.124
same,glycan array binding signal (z-score),[23],-0.223
same,glycan array binding signal (z-score),[24],-0.179
same,glycan array binding signal (z-score),[25],-0.096
same,glycan array binding signal (z-score),[26],-0.318
same,glycan array binding signal (z-score),[27],-0.201
same,glycan array binding signal (z-score),[28],0.269
same,glycan array binding signal (z-score),[29],-0.423
same,glycan array binding signal (z-score),[30],-0.154
same,glycan array binding signal (z-score),[31],-0.308
same,glycan array binding signal (z-score),[32],-0.349
same,glycan array binding signal (z-score),[33],-0.235
same,glycan array binding signal (z-score),[34],-0.115
same,glycan array binding signal (z-score),[35],20.3
same,glycan array binding signal (z-score),[36],-0.131
same,glycan array binding signal (z-score),[37],-0.349
same,glycan array binding signal (z-score),Fuc(a1-3)GlcNAc,-0.189
same,glycan array binding signal (z-score),[38],0.226
same,glycan array binding signal (z-score),[39],-0.041
same,glycan array binding signal (z-score),[40],0.263
same,glycan array binding signal (z-score),[41],0.205
same,glycan array binding signal (z-score),[42],-0.035
same,glycan array binding signal (z-score),[43],-0.053
same,glycan array binding signal (z-score),[44],-0.347
same,glycan array binding signal (z-score),[45],-0.364
same,glycan array binding signal (z-score),[46],0.349
same,glycan array binding signal (z-score),[47],-0.062
same,glycan array binding signal (z-score),[48],-0.1
same,glycan array binding signal (z-score),[49],-0.005
same,glycan array binding signal (z-score),[50],-0.647
same,glycan array binding signal (z-score),[51],0.114
same,glycan array binding signal (z-score),[52],-0.097
same,glycan array binding signal (z-score),[53],-0.08
same,glycan array binding signal (z-score),[54],-0.084
same,glycan array binding signal (z-score),[55],-0.029
same,glycan array binding signal (z-score),[56],-0.08
same,glycan array binding signal (z-score),[57],6.12
same,glycan array binding signal (z-score),[58],-0.423
same,glycan array binding signal (z-score),Fuc(a1-4)GlcNAc,0.476

# — the supplement of paper PMC8728848
